Measured values from PubChem BioAssay (NCATS).
The shares of active, inactive and inconclusive entries below differ from those in the screen. For part of these data: A potency beside an inconclusive call is a rough fit, not a confirmed value. The source made the active and inactive calls. Unless noted, calls follow the shape of the dose curve; as a rule, active = well fitted curve in the direction sought with a large enough effect; inconclusive = small, poorly fitted or top-dose-only effect, or another doubt; inactive = no such curve, though single readings can be large; an effect the other way counts as inactive or inconclusive.

What was measured:
[1] = target: Rap guanine nucleotide exchange factor 3 (Homo sapiens) (UniProt O95398); experiment: Confirmatory qHTS for antagonist of cAMP-regulated guanine nucleotide exchange factor 3 (EPAC1) (AID 1645880); conditions: EPAC1 Rap1B-BODIPY-GDP exchange, fluorescence; activity, negative = inhibition: at 115 µM (top of the series); also: nearly all actives have a fitted effect of over 55% in size; also: potency is read from the fitted curve at half-maximal effect;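 as to activity, negative = inhibition: plate controls were DMSO only for no effect and full effect of the ATA control for full effect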
UniProt O95398, sequence (O95398 whole entry, looked up): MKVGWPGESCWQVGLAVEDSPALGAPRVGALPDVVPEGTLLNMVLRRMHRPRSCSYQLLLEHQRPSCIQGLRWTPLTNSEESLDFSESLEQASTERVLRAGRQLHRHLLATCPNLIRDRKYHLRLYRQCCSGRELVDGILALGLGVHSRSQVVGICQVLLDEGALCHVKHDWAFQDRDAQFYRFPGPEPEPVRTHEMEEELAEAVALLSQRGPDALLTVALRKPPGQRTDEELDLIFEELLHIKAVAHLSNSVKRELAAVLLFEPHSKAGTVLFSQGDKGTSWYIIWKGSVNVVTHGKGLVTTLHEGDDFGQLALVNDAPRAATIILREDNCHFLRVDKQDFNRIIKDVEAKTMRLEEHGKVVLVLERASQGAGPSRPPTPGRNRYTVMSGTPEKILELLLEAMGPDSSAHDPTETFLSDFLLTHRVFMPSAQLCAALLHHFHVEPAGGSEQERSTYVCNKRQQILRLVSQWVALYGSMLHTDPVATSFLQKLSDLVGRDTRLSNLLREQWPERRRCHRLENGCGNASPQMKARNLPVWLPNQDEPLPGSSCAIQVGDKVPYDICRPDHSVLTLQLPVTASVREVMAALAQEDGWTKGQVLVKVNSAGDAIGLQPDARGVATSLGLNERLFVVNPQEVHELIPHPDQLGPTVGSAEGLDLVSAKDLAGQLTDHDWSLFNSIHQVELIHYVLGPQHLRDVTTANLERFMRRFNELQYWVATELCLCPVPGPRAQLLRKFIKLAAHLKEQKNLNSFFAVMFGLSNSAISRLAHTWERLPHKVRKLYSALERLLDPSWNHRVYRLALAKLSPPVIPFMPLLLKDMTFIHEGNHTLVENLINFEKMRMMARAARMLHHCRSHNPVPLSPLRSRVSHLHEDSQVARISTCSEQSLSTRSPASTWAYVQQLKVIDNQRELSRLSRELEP
Outline: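 Nucleotide exchange uses 100 nM EPAC1, 250 nM RAP1B-BODIPY-GDP and 50 uM GDP, with compounds in a concentration-titration series. After 5 min at room temperature, fluorescence (480 nm ex/540 nm em) is read every 5 min for 30 min. Data are normalized to control ATA and DMSO.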

[2] = target: Rap guanine nucleotide exchange factor 4 (Homo sapiens) (UniProt Q8WZA2); experiment: Confirmatory qHTS for agonist of cAMP-regulated guanine nucleotide exchange factor 4 (EPAC2) (AID 1645884); conditions: EPAC2 GEF activity, Rap1B-BODIPY-GDP fluorescence; activation: at 154 µM (top of the series), percent relative to cAMP agonist control;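 also: nucleotide exchange releases bodipy-GDP from Rap1 and this lowers its fluorescence; nearly all actives have a fitted effect of over 65% in size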; also: potency is read from the fitted curve at half-maximal effect; as to activation: % is scaled to controls: 0 for no effect and ±100 for the full control effect
UniProt Q8WZA2, sequence (Q8WZA2 whole entry, looked up): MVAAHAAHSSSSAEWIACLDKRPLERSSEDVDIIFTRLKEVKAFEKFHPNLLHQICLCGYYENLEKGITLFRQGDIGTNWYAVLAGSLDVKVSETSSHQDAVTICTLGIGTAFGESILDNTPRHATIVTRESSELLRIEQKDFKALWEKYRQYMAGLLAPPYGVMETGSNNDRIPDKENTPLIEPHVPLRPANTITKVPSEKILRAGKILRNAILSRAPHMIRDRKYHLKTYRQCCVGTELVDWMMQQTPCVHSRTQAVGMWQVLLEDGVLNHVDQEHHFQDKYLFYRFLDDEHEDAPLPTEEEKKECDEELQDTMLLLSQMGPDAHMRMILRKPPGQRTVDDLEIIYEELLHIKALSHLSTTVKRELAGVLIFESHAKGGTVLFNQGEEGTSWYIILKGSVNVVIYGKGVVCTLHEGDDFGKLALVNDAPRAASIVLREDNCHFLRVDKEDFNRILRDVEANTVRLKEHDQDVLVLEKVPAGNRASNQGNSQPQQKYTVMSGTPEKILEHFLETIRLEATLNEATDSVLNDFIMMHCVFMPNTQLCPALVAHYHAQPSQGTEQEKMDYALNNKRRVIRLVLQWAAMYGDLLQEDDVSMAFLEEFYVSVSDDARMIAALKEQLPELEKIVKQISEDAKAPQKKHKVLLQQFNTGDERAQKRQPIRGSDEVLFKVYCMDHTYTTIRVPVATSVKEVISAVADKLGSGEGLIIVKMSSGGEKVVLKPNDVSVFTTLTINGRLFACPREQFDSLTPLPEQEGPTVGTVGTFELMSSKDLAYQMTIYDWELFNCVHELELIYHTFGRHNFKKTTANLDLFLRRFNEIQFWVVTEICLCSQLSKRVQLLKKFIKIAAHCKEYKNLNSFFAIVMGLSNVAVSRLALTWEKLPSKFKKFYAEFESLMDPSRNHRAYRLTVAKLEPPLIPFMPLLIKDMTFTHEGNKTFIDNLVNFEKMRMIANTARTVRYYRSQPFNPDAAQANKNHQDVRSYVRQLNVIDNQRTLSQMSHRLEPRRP

[3] = target: Rap guanine nucleotide exchange factor 3 (Homo sapiens) (UniProt O95398); experiment: Counterscreen qHTS for agonist of cAMP-regulated guanine nucleotide exchange factor 3 (EPAC1) (AID 1645889); conditions: EPAC1 Rap1B-BODIPY-GDP exchange, fluorescence; activation: at 154 µM (top of the series) unless noted; also: nearly all actives have a fitted effect of over 40% in size; also: potency is read from the fitted curve at half-maximal effect; as to activation: % of control where 0% means no effect
Outline: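 Rap1B-BODIPY-GDP 250 nM + GDP 50 uM; cpds 7-pt, final 9.74 nM–152 uM (activator mode) or from 7.32 nM upwards (inhibitor mode); RT; FI 480/540 nm at 5 and 30 min, then ± cAMP, reread.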

[4] = qHTS Assay for Identification of Small Molecule Antagonists for NFkB Signaling Pathway (AID 895; active = well fitted inhibition curve with a large enough effect in the signal ratio, with a control signal flat, not every such curve was filed as active; inconclusive = small, poorly fitted or top-dose-only effect, or effect the other way, or a change in a side signal; the % refers to the signal ratio; also: potency is read from the fitted curve at half-maximal effect); conditions: NFkB beta-lactamase reporter cells, FRET ratio 460/530, stimulated with 10 pM TNF alpha; activity change, negative = inhibition: at 38.3 µM (top of the series)
Outline: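 Beta-lactamase reporter read-out (460 and 530 nm emission ratio, 405 nm excitation, 2 hrs substrate loading RT) after 5 hr stimulation with 10 pM TNF alpha in compound-treated NFkB-bla ME-180 cells in low-serum medium.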

[5] = qHTS Assay for Identification of Small Molecule Antagonists for Thrombopoietin (TPO) Signaling Pathway (AID 918); conditions: TPO-dependent cell signaling reporter, antagonist mode; activity change, negative = inhibition: at 38.5 µM (top of the series); also: nearly all actives have a fitted effect of over 60% in size
Outline: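 Murine Ba/F3 cells expressing human TPO receptor and a Glycoprotein IIb promoter-luciferase reporter, IL-3-starved overnight, treated with compound plus TPO at EC50 (26 pM final). After 24 h at 37 C, luminescence read to detect inhibitors.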

[6] = target: Muscarinic acetylcholine receptor M1 (Rattus norvegicus) (UniProt P08482); experiment: qHTS Assay for Antagonists of Acetylcholine Muscarinic M1 Receptor: Kinetic Measurement of Intracellular Calcium Response (AID 943); conditions: M1-expressing cells, kinetic intracellular calcium fluorescence; series mostly up to 35.3 µM; also: potency is read from the fitted curve at half-maximal effect; nearly all actives have a fitted effect of over 75% in size
UniProt P08482, sequence (P08482 whole entry, looked up): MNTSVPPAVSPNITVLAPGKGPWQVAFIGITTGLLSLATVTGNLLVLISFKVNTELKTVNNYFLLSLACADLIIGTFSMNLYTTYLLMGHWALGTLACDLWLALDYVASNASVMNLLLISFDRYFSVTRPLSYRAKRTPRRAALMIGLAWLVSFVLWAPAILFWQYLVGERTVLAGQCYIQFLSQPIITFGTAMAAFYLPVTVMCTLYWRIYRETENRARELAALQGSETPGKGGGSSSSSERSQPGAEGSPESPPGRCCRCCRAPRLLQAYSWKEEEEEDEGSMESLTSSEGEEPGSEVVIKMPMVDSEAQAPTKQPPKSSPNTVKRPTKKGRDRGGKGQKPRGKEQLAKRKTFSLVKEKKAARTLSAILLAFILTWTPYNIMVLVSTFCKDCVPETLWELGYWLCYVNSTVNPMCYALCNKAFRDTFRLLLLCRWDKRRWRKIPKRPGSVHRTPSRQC
Outline: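 CHO cells expressing rat M1 receptor, Fluo-4 loaded, preincubated 10 min with compound, then stimulated with EC80 carbachol (100 nM final). Kinetic calcium fluorescence over 4 min; response taken as peak over basal signal.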

[7] = target: Rap guanine nucleotide exchange factor 4 (Homo sapiens) (UniProt Q8WZA2); experiment: Confirmatory qHTS for antagonist of cAMP-regulated guanine nucleotide exchange factor 4 (EPAC2) (AID 1645885); conditions: EPAC2 Rap1B-BODIPY-GDP exchange fluorescence, biochemical; activity change, negative = inhibition: at 12.7 µM (top of the series) unless noted; series mostly up to 114 µM; also: potency is read from the fitted curve at half-maximal effect; nearly all actives have a fitted effect of over 25% in size
Tags tell the direction and shape of the fitted curve or compound fluorescence and quenching.

**Q.** Which results are given for Cc1cccc(CNC(=O)c2ccc(-c3nc(CS(=O)(=O)c4ccccc4)c(C)o3)cc2)c1?
**A.** Potency [1]: inactive; Potency [2]: inconclusive: 44.7 µM [activator, partial curve, poor fit]; activation [3]: inconclusive: 38.6% [activator]

**Q.** With O=C(c1ccc(Br)cc1)C(CN1CCOCC1)c1ccccc1 (stereo unspecified) as the compound, how does the Potency [1] read?
**A.** inconclusive: 56.2 µM [inhibitor, partial curve, poor fit]

**Q.** And the activation [2]?
**A.** inactive: 8.74% [at 17.1 µM, percent relative to cAMP agonist control]

**Q.** And the activation [3]?
**A.** inconclusive: 70.5% [activator] [at 30.8 µM]

**Q.** Which results are given for CCOC(=O)Nc1cc2c(c(N)n1)N=C(c1ccccc1)CN2?
**A.** Potency [1]: inconclusive: 75.7 µM [inhibitor, partial curve]; Potency [2]: inconclusive: 100 µM [activator, partial curve]; Potency [3]: inconclusive: 28.2 µM [activator, partial curve]

**Q.** For Cc1cccc(Cn2c(-c3cccs3)nc3ccccc32)c1, which Potency [1] is on record?
**A.** inactive

**Q.** And the Potency [2]?
**A.** inconclusive: 50.1 µM [activator, single point]

**Q.** And the activation [3]?
**A.** inconclusive: 59.4% [activator]

**Q.** With O=C(O)CSCC(=O)N(Cc1ccccc1)c1nc(-c2ccccc2)c(-c2ccccc2)s1 as the compound, how does the Potency [1] read?
**A.** active: 67.5 µM

**Q.** And the Potency [2]?
**A.** inconclusive: 126 µM [activator, single point]

**Q.** What about the Potency [3] of the same compound?
**A.** inconclusive: 7.94 µM [activator, partial curve, poor fit]

**Q.** With CCn1ccnc1C[C@@H]1COc2ccccc2O1 as the compound, how does the Potency [4] read?
**A.** inconclusive: 12.6 µM [inhibitor, single point]

**Q.** What about the activity change, negative = inhibition [5] of the same compound?
**A.** inconclusive: 7.45% [phenotype inactive]

**Q.** And the Potency [6]?
**A.** inconclusive: 12.6 µM [inhibitor, partial curve, poor fit]

**Q.** And the Potency [1]?
**A.** inactive

**Q.** And the Potency [2]?
**A.** inactive

**Q.** What about the Potency [7] of the same compound?
**A.** active: 17.5 µM

**Q.** For COc1ccc(-c2csc(C(C)(O)c3ccccc3)n2)cc1 (stereo unspecified), which Potency [1] is on record?
**A.** inconclusive: 28.2 µM [inhibitor, partial curve]

**Q.** And the activation [2]?
**A.** inactive: 5.7% [at 17.1 µM, percent relative to cAMP agonist control]

**Q.** And the activation [3]?
**A.** inactive: 23.4% [at 30.8 µM]

**Q.** Which Potency [1] does the source give for CC(=O)Nc1ccc(Nc2nnc(-c3ccc(O)cc3)c3ccccc23)cc1 here?
**A.** inconclusive: 120 µM [inhibitor, partial curve, poor fit]

**Q.** And the Potency [2]?
**A.** inconclusive: 112 µM [activator, single point]

**Q.** And the activation [3]?
**A.** inconclusive: 31.4% [activator]

**Q.** For CCN(C(=O)Cn1c(C(=O)OC)cc2sccc21)c1cccc(C)c1, which Potency [1] is on record?
**A.** inconclusive: 95.3 µM [inhibitor, partial curve, poor fit]

**Q.** What about the Potency [2] of the same compound?
**A.** inactive

**Q.** And the activation [3]?
**A.** inconclusive: 70.9% [activator]

**Q.** What does the source list for CC(C)(C)c1cc(NCCCn2ccnc2)n2ncc(-c3ccccc3)c2n1?
**A.** Potency [1]: inconclusive: 84.9 µM [inhibitor, partial curve]; Potency [2]: inconclusive: 79.4 µM [activator, partial curve, poor fit]; Potency [3]: inactive

**Q.** Which Potency [1] does the source give for Cc1cccc(C)c1OCC(=O)N(Cc1ccco1)Cc1ccco1 here?
**A.** inactive

**Q.** And the Potency [2]?
**A.** inactive

**Q.** And the Potency [3]?
**A.** inconclusive: 70.8 µM [activator, partial curve, poor fit]

**Q.** Which Potency [1] does the source give for Cc1cc[n+](-c2[nH]c(=O)sc2/C=N/N=C(\[O-])c2ccccc2)cc1 here?
**A.** inconclusive: 0.0107 µM [inhibitor, full curve]

**Q.** What about the Potency [2] of the same compound?
**A.** inconclusive: 112 µM [activator, single point]

**Q.** What about the activation [3] of the same compound?
**A.** inconclusive: 35.9% [activator]

**Q.** What does the source list for COc1ccc(Cl)cc1C1CC(=O)Nc2cc3c(cc21)OCCO3 (stereo unspecified)?
**A.** Potency [1]: inconclusive: 95.3 µM [inhibitor, partial curve, poor fit]; Potency [2]: inconclusive: 50.1 µM [activator, single point]; activation [3]: inconclusive: 33.9% [activator]

**Q.** For CCOc1ccc(NC(=O)CSc2nc(-c3cccc(Cl)c3)nc3c2Cc2c(CO)cnc(C)c2O3)cc1, which Potency [1] is on record?
**A.** inactive

**Q.** And the Potency [2]?
**A.** inconclusive: 50.1 µM [activator, partial curve, poor fit]

**Q.** What about the Potency [3] of the same compound?
**A.** inconclusive: 50.1 µM [activator, partial curve]

**Q.** What does the source list for COc1cc(/C=C(/C#N)c2nc(-c3cc4ccccc4oc3=O)cs2)ccc1O?
**A.** Potency [1]: inactive; Potency [2]: inactive; activation [3]: inconclusive: 44.9% [activator]

**Q.** What does the source list for Cc1ccc2[nH]cc(C(c3ccccc3)c3cccs3)c2c1 (stereo unspecified)?
**A.** Potency [1]: inactive; Potency [2]: inactive; Potency [3]: inactive
